Some of the results follow. The full chains were built here from the parent and the listed change. Inactive controls read about 0.05.
B1: TEV protease; numbered along this chain (parent)
chain: MGESLFKGPRDYNPISSSICHLTNESDGHTTSLYGIGFGPFIITNKHLFRRNNGTLVVQSLHGVFKVKDTTTLQQHLVDGRDMIIIRMPKDFPPFPQKLKFREPQREERICLVTTNFQTKSMSSMVSDTSCTFPSGDGIFWKHWIQTKDGQCGSPLVSTRDGFIVGIHSASNFTNTNNYFTSVPKNFMELLTNQEAQQWVSGWRLNADSVLWGGHKVFMVKPEEPFQPVKEATQL

Variants of: B1
Test: raw area under fraction-flipped curve 0-4 h after induction (AUC4h, not background-subtracted), DNA-recorder readout of cleavage of the substrate (dimensionless); higher = more cleavage of the substrate by the protease variant
Details: temperature: 34 °C; time window: 0-4 h after rhamnose induction
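Note: Bxb1 expression induced with 0.2% (w/v) L-rhamnose at OD600 near 0.5, cultures sampled hourly, flipped fraction per protease–substrate barcode pair counted by paired-end Illumina sequencing.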

## D208F
  area with substrate ECLYFQS: 0.068
  area with substrate EHLYFQS: 0.0645
  area with substrate EILYFQS: 0.0632
  area with substrate EKLYFQS: 0.0401
  area with substrate EPLYFQS: 0.0753
  area with substrate ERLYFQS: 0.056
  area with substrate ESLYFQS: 0.0797
  area with substrate ETLYFQS: 0.0745
  area with substrate EVLYFQS: 0.069
  area with substrate EYLYFQS: 0.0876

## P104N
  area with substrate ECLYFQS: 0.041
  area with substrate EDLYFQS: 0.0499
  area with substrate EILYFQS: 0.04
  area with substrate EKLYFQS: 0.0304
  area with substrate ELLYFQS: 0.052
  area with substrate EMLYFQS: 0.0391
  area with substrate EPLYFQS: 0.0473
  area with substrate EQLYFQS: 0.0992
  area with substrate ERLYFQS: 0.0513

## A232Y
  area with substrate ECLYFQS: 0.125
  area with substrate EELYFQS: 0.118
  area with substrate EFLYFQS: 0.118
  area with substrate EGLYFQS: 0.0938
  area with substrate EHLYFQS: 0.121
  area with substrate EILYFQS: 0.0948
  area with substrate EKLYFQS: 0.103
  area with substrate ELLYFQS: 0.088
  area with substrate EMLYFQS: 0.114
  area with substrate EPLYFQS: 0.0969
  area with substrate EQLYFQS: 0.12
  area with substrate ERLYFQS: 0.0762
  area with substrate ESLYFQS: 0.121
  area with substrate ETLYFQS: 0.138

## L48Y
  area with substrate ECLYFQS: 0.0654
  area with substrate EDLYFQS: 0.0505
  area with substrate EELYFQS: 0.0608
  area with substrate EGLYFQS: 0.0718
  area with substrate EHLYFQS: 0.056
  area with substrate EMLYFQS: 0.0668
  area with substrate EPLYFQS: 0.0633
  area with substrate EQLYFQS: 0.0485
  area with substrate EVLYFQS: 0.0559
  area with substrate EWLYFQS: 0.0682

## E223Q
  area with substrate ECLYFQS: 0.13
  area with substrate EDLYFQS: 0.162
  area with substrate EELYFQS: 0.108
  area with substrate EILYFQS: 0.0812
  area with substrate EKLYFQS: 0.122
  area with substrate EQLYFQS: 0.102
  area with substrate ERLYFQS: 0.122
  area with substrate ESLYFQS: 0.108
  area with substrate EVLYFQS: 0.0812
  area with substrate EYLYFQS: 0.0761

## D208I
  area with substrate ECLYFQS: 0.0605
  area with substrate EDLYFQS: 0.0722
  area with substrate EELYFQS: 0.0756
  area with substrate EGLYFQS: 0.078
  area with substrate EHLYFQS: 0.0829
  area with substrate EILYFQS: 0.0501
  area with substrate EKLYFQS: 0.0454
  area with substrate ELLYFQS: 0.0687
  area with substrate EMLYFQS: 0.0781
  area with substrate EPLYFQS: 0.0709
  area with substrate EQLYFQS: 0.0982
  area with substrate ERLYFQS: 0.0588
  area with substrate ESLYFQS: 0.0678
  area with substrate ETLYFQS: 0.0703
  area with substrate EVLYFQS: 0.0585
  area with substrate EWLYFQS: 0.0916
  area with substrate EYLYFQS: 0.0722

## L22G
  area with substrate ECLYFQS: 0.0391
  area with substrate EKLYFQS: 0.0576
  area with substrate EQLYFQS: 0.0452
  area with substrate ERLYFQS: 0.0238
  area with substrate ESLYFQS: 0.0653

## G136F
  area with substrate ECLYFQS: 0.0861
  area with substrate EDLYFQS: 0.101
  area with substrate EELYFQS: 0.119
  area with substrate EFLYFQS: 0.121
  area with substrate EGLYFQS: 0.0949
  area with substrate EHLYFQS: 0.0858
  area with substrate EILYFQS: 0.094
  area with substrate EKLYFQS: 0.114
  area with substrate ELLYFQS: 0.103
  area with substrate EPLYFQS: 0.118
  area with substrate EQLYFQS: 0.113
  area with substrate ERLYFQS: 0.102
  area with substrate ESLYFQS: 0.111
  area with substrate ETLYFQS: 0.14
  area with substrate EVLYFQS: 0.0983
  area with substrate EWLYFQS: 0.0596
  area with substrate EYLYFQS: 0.133

## N24G
  area with substrate ECLYFQS: 0.0711
  area with substrate EDLYFQS: 0.0825
  area with substrate EELYFQS: 0.071
  area with substrate EFLYFQS: 0.0538
  area with substrate EGLYFQS: 0.0571
  area with substrate EHLYFQS: 0.0693
  area with substrate EILYFQS: 0.0681
  area with substrate EKLYFQS: 0.0667
  area with substrate ELLYFQS: 0.0613
  area with substrate EMLYFQS: 0.0606
  area with substrate EPLYFQS: 0.101
  area with substrate EQLYFQS: 0.0728
  area with substrate ERLYFQS: 0.0685
  area with substrate ESLYFQS: 0.0633
  area with substrate ETLYFQS: 0.0686
  area with substrate EVLYFQS: 0.0595
  area with substrate EWLYFQS: 0.056

## S32C
  area with substrate ECLYFQS: 0.106
  area with substrate EDLYFQS: 0.148
  area with substrate EELYFQS: 0.15
  area with substrate EFLYFQS: 0.0639
  area with substrate EGLYFQS: 0.092
  area with substrate EHLYFQS: 0.104
  area with substrate EILYFQS: 0.114
  area with substrate EKLYFQS: 0.118
  area with substrate ELLYFQS: 0.0843
  area with substrate EMLYFQS: 0.0744
  area with substrate EQLYFQS: 0.164
  area with substrate ERLYFQS: 0.115
  area with substrate ESLYFQS: 0.102
  area with substrate EVLYFQS: 0.0889
  area with substrate EWLYFQS: 0.0666
  area with substrate EYLYFQS: 0.106

## D149R
  area with substrate ECLYFQS: 0.0951
  area with substrate EHLYFQS: 0.121
  area with substrate EILYFQS: 0.0832
  area with substrate ERLYFQS: 0.096
  area with substrate ESLYFQS: 0.13

## R160T
  area with substrate ECLYFQS: 0.127
  area with substrate EDLYFQS: 0.142
  area with substrate EELYFQS: 0.139
  area with substrate EFLYFQS: 0.115
  area with substrate EPLYFQS: 0.101
  area with substrate EQLYFQS: 0.109
  area with substrate ERLYFQS: 0.173
  area with substrate ESLYFQS: 0.193

## P228F
  area with substrate ECLYFQS: 0.078
  area with substrate EDLYFQS: 0.121
  area with substrate EHLYFQS: 0.0885
  area with substrate EILYFQS: 0.0974
  area with substrate ELLYFQS: 0.0893
  area with substrate EPLYFQS: 0.0975
  area with substrate ESLYFQS: 0.0924
  area with substrate ETLYFQS: 0.0913
  area with substrate EVLYFQS: 0.0769

## P184E
  area with substrate ECLYFQS: 0.065
  area with substrate EFLYFQS: 0.0967
  area with substrate EGLYFQS: 0.078
  area with substrate EHLYFQS: 0.0653
  area with substrate EILYFQS: 0.067
  area with substrate EMLYFQS: 0.0881
  area with substrate EPLYFQS: 0.0569
  area with substrate EQLYFQS: 0.0691
  area with substrate ERLYFQS: 0.0744
  area with substrate ESLYFQS: 0.0717
  area with substrate EVLYFQS: 0.0686

## V64G
  area with substrate ECLYFQS: 0.106
  area with substrate EKLYFQS: 0.105
  area with substrate EMLYFQS: 0.112
  area with substrate EQLYFQS: 0.104
  area with substrate ESLYFQS: 0.0904
  area with substrate EVLYFQS: 0.0894
  area with substrate EYLYFQS: 0.0971

Reference: the supplement of paper PMC12217912
